Experimental data from PubChem BioAssay AID2094 (Broad Institute, 2009).
The campaign covered roughly 300,000 compounds. About 1,200 (0.4%) were called active. This list was built around the results that the source calls inconclusive (neither active nor inactive); the mix of calls is not that of the screen. Rule as the data show it: active = activity change below about -75% (passing the limit was not always enough); inconclusive = no clear call, values can overlap the other calls.

Experiment: Vibrio harveyi AI-2 quorum sensing modulators, primary screen, JMH597 strain, luminescence/OD600 ratio (AID 2094);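 also: luminescence divided by OD600 gain over 9 h not by final OD600 alone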
Conditions: Vibrio harveyi JMH597 AI-2 luminescence/OD600 ratio, 9 h; at 7.5 µM; active compounds read low; 0 = neutral-control median; strain lacks LuxN and CqsS sensors

Q: With O=C(Nc1ccccc1)C1=C(c2ccccc2)S(=O)(=O)CCS1(=O)=O as the compound, how does the activity change read?
A: inconclusive: -77.5%

Q: With CCCC(=O)Nc1ccc(C(=O)N/N=C/c2ccc([N+](=O)[O-])o2)cc1 as the compound, how does the activity change read?
A: inconclusive: -49.3%

Q: For Cc1nc(SCC(=O)O)n[nH]1, which activity change is on record?
A: inactive: 7.92%

Q: With Cc1c(O)ccc(C(=O)COc2ccccc2F)c1O as the compound, how does the activity change read?
A: inconclusive: -71.8%

Q: With Oc1cccc(C(Nc2nccs2)c2ccc3cccnc3c2O)c1 (stereo unspecified) as the compound, how does the activity change read?
A: active: -85%

Q: For CC(C)(C)c1ccc(OCCC(=O)OCC(=O)N2c3ccccc3NC(=O)C2(C)C)cc1, which activity change is on record?
A: inconclusive: -74.7%

Q: Which activity change does the source give for COc1ccc2nc(NC(=O)CSCc3c(C)noc3C)sc2c1 here?
A: inconclusive: -74.6%

Q: Which activity change does the source give for O=C(N/N=C/c1cccc(O)c1)c1csc2ccccc12 here?
A: inconclusive: -72.6%

Q: Which activity change does the source give for Cc1ccc(Nc2cc(C)nn2-c2nc(C)cc(=O)[nH]2)cc1 here?
A: active: -160%

Q: For Cc1ccc(C(=O)NCc2ccccc2)cc1Br, which activity change is on record?
A: active: -77.5%

Q: For COc1cc(NC(=O)CN2C(=O)NC(c3ccccc3)(c3ccccc3)C2=O)cc(OC)c1, which activity change is on record?
A: active: -89.1%

Q: Which activity change does the source give for CN(C)N=Nc1ccc(-c2cn(Cc3ccccc3)cn2)cc1 here?
A: inconclusive: -39.9%

Q: With CCOC(=O)c1c(C)oc2cc(Br)c(OC(=O)N3CCOCC3)cc12 as the compound, how does the activity change read?
A: inconclusive: -85.9%

Q: For O=C1OCCN1/N=C/c1ccc([N+](=O)[O-])o1, which activity change is on record?
A: inconclusive: -76.9%

Q: For O=C1CC(N2CCCCCC2)C(=O)N1c1ccc2c(c1)OCO2 (stereo unspecified), which activity change is on record?
A: inconclusive: -91.7%

Q: Which activity change does the source give for COC(=O)CSc1nnc(COc2cccc3ccccc23)o1 here?
A: active: -83.3%

Q: For CCCOc1ccc(C(=O)NNC(=S)NC(=O)c2ccco2)cc1, which activity change is on record?
A: inconclusive: -76.5%

Q: Which activity change does the source give for COc1ccc(NC(=O)CCS(=O)(=O)c2ccc3c(c2)CCN3C(C)=O)cc1 here?
A: inactive: 23.2%

Q: Which activity change does the source give for Cc1ccc(S(=O)(=O)CCC(=O)Nc2nc(-c3cccnc3)cs2)cc1 here?
A: inactive: 19.6%

Q: Which activity change does the source give for Cc1cc(NC(=O)CN2C(=O)c3ccccc3C2=O)no1 here?
A: inconclusive: -75.4%

Q: With Cc1ccc(S(=O)(=O)CCC(=O)c2cccc([N+](=O)[O-])c2)cc1 as the compound, how does the activity change read?
A: inconclusive: -66.5%

Q: For O=c1oc2ccccc2c(O)c1/C=C1\C=Nc2ccccc21, which activity change is on record?
A: inconclusive: -79.7%

Q: With CCCCC(=O)NC(=S)NNC(=O)c1ccc(OC)cc1 as the compound, how does the activity change read?
A: inconclusive: -33.1%

Q: Which activity change does the source give for CCCn1c(=S)[nH]c2cc(C(=O)N3CCc4ccccc43)ccc2c1=O here?
A: inconclusive: -59.1%

Q: For Cc1ccccc1NCC(=O)N/N=C\c1ccc([N+](=O)[O-])s1, which activity change is on record?
A: inconclusive: -66.4%

Q: For O=C(CCc1ccccc1)Nc1ccc(S(=O)(=O)N2CCCC2)cc1, which activity change is on record?
A: active: -89.3%
